This data set deals with T1, human P450 reductase fused at its N-terminus to the bacterial pelB leader sequence, P16435.
T1 chain: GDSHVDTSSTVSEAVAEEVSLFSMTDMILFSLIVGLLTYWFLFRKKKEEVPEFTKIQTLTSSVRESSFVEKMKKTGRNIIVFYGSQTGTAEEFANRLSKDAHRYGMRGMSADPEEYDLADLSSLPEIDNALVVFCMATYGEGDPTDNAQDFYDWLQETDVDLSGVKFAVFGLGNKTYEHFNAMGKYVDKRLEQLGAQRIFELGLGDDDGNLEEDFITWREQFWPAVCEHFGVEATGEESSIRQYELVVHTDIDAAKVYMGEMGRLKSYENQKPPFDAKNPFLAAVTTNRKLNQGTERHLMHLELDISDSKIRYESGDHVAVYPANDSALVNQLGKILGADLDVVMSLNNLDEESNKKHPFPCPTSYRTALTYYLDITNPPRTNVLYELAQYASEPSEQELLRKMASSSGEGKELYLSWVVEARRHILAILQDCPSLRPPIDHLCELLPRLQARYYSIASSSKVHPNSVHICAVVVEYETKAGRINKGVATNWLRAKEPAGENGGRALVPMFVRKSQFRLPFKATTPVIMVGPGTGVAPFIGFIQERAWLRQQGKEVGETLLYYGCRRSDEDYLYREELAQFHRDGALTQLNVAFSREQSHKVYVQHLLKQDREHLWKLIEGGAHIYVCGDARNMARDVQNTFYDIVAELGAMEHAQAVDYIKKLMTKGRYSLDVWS

B1: 17α-CYP3A4 (optimised CYP3A4 expressed from NF14 / pB216) (protein)
chain: MALIPDLAMETWLLLAVSLVLLYLYGTHSHGLFKKLGIPGPTPLPFLGNILSYHKGFCMFDMECHKKYGKVWGFYDGQQPVLAITDPDMIKTVLVKECYSVFTNRRPFGPVGFMKSAISIAEDEEWKRLRSLLSPTFTSGKLKEMVPIIAQYGDVLVRNLRREAETGKPVTLKDVFGAYSMDVITSTSFGVNIDSLNNPQDPFVENTKKLLRFDFLDPFFLSITVFPFLIPILEVLNICVFPREVTNFLRKSVKRMKESRLEDTQKHRVDFLQLMIDSQNSKETESHKALSDLELVAQSIIFIFAGYETTSSVLSFIMYELATHPDVQQKLQEEIDAVLPNKAPPTYDTVLQMEYLDMVVNETLRLFPIAMRLERVCKKDVEINGMFIPKGVVVMIPSYALHRDPKYWTEPEKFLPERFSKKNKDNIDPYIYTPFGSGPRNCIGMRFALMNMKLALIRVLQNFSFKPCKETQIPLKLSLGGLLQPEKPVVLKVESRDGTVSGA
Turning to B1, the erythromycin N-demethylase turnover, JM109 pB216 membranes was 2.3 min^-1; the nifedipine oxidase turnover, JM109 pB216 membranes came out at 12.7 min^-1; the nifedipine oxidase turnover, membranes, two plasmid system (nmol formed per minute per nmol CYP3A4) was determined as 9.1; the testosterone 6β-hydroxylase turnover, JM109 pB216 membranes is 25.5 min^-1. The protein further yielded a testosterone 6β-hydroxylase turnover, membranes, two plasmid system (nmol formed per minute per nmol CYP3A4) of 4.9.

B2: ompA(+2)-CYP3A4 (protein)
chain: APALIPDLAMETWLLLAVSLVLLYLYGTHSHGLFKKLGIPGPTPLPFLGNILSYHKGFCMFDMECHKKYGKVWGFYDGQQPVLAITDPDMIKTVLVKECYSVFTNRRPFGPVGFMKSAISIAEDEEWKRLRSLLSPTFTSGKLKEMVPIIAQYGDVLVRNLRREAETGKPVTLKDVFGAYSMDVITSTSFGVNIDSLNNPQDPFVENTKKLLRFDFLDPFFLSITVFPFLIPILEVLNICVFPREVTNFLRKSVKRMKESRLEDTQKHRVDFLQLMIDSQNSKETESHKALSDLELVAQSIIFIFAGYETTSSVLSFIMYELATHPDVQQKLQEEIDAVLPNKAPPTYDTVLQMEYLDMVVNETLRLFPIAMRLERVCKKDVEINGMFIPKGVVVMIPSYALHRDPKYWTEPEKFLPERFSKKNKDNIDPYIYTPFGSGPRNCIGMRFALMNMKLALIRVLQNFSFKPCKETQIPLKLSLGGLLQPEKPVVLKVESRDGTVSGA
In the case of B2, the nifedipine oxidase turnover, membranes, two plasmid system (nmol formed per minute per nmol CYP3A4) was found to be 11.1 and the testosterone 6β-hydroxylase turnover, membranes, two plasmid system (nmol formed per minute per nmol CYP3A4) came out at 9.9.

B3: ompA-CYP3A4 (protein)
chain: ALIPDLAMETWLLLAVSLVLLYLYGTHSHGLFKKLGIPGPTPLPFLGNILSYHKGFCMFDMECHKKYGKVWGFYDGQQPVLAITDPDMIKTVLVKECYSVFTNRRPFGPVGFMKSAISIAEDEEWKRLRSLLSPTFTSGKLKEMVPIIAQYGDVLVRNLRREAETGKPVTLKDVFGAYSMDVITSTSFGVNIDSLNNPQDPFVENTKKLLRFDFLDPFFLSITVFPFLIPILEVLNICVFPREVTNFLRKSVKRMKESRLEDTQKHRVDFLQLMIDSQNSKETESHKALSDLELVAQSIIFIFAGYETTSSVLSFIMYELATHPDVQQKLQEEIDAVLPNKAPPTYDTVLQMEYLDMVVNETLRLFPIAMRLERVCKKDVEINGMFIPKGVVVMIPSYALHRDPKYWTEPEKFLPERFSKKNKDNIDPYIYTPFGSGPRNCIGMRFALMNMKLALIRVLQNFSFKPCKETQIPLKLSLGGLLQPEKPVVLKVESRDGTVSGA
On to B3, for which the nifedipine oxidase turnover, membranes, two plasmid system (nmol formed per minute per nmol CYP3A4) turned out to be 8.8 and the testosterone 6β-hydroxylase turnover, membranes, two plasmid system (nmol formed per minute per nmol CYP3A4) is 2.5.
